# Among all 310,000 compounds or so, about 2,200 (0.71%) showed an effect of 50% or more. Effects have a minus sign here. Some of the results follow.
# Target: human ether-à-go-go-related gene (hERG) potassium channel (human, UniProt Q12809)
# Experiment: primary screen, population patch clamp on CHO cells stably expressing hERG
# Sequence of human ether-à-go-go-related gene (hERG) potassium channel (Q12809 whole entry, looked up): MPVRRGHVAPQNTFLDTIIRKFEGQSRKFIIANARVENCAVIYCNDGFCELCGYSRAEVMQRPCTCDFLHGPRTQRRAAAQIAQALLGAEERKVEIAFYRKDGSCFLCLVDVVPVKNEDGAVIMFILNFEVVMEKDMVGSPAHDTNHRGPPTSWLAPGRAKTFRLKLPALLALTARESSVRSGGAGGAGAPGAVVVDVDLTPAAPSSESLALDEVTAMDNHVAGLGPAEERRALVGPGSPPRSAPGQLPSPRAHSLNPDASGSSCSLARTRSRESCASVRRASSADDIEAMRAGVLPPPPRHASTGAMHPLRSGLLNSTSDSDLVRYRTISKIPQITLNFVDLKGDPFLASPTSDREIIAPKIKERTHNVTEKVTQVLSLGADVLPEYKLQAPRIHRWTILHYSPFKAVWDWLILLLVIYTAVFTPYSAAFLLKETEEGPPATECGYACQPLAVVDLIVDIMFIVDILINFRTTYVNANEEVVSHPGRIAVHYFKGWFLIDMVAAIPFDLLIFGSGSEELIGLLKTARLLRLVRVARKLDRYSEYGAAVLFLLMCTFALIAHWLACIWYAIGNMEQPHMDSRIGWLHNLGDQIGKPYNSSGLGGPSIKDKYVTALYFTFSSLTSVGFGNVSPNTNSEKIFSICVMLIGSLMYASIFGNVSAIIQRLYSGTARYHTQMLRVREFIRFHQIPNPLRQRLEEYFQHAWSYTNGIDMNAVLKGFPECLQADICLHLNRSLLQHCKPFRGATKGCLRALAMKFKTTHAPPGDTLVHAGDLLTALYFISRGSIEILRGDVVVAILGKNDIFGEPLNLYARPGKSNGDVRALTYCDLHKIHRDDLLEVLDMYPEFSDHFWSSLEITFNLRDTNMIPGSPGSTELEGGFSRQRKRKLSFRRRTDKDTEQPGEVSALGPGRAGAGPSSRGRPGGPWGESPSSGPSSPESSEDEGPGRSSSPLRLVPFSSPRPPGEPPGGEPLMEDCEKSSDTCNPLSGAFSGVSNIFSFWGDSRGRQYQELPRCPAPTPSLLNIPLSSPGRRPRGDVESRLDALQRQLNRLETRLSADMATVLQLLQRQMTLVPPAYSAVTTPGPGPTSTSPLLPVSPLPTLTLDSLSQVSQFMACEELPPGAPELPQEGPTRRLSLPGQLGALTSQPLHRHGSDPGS
row,SMILES,"hERG current change (%, negative = inhibition) at 1uM [%]"
1,CC1CN(C(=O)c2ccccc2)c2ccccc2NC1=O (stereo not shown),7.07
2,CC(=O)C(CC(=O)N1CCCc2ccccc21)C(=O)Nc1ccc(F)cc1 (stereo not shown),10.5
3,CC(C)(C)c1ccc(C(=O)C=[N+]=[N-])cc1,-11.8
4,O=C(Nc1ccc(CN2CCCCC2)cc1)Nc1ccccc1Cl,-4.06
5,O=S(=O)(c1ccc(Br)s1)N1CCNCC1,0.813
6,Cc1ccc(NS(=O)(=O)c2ccc(C)c(C(=O)N3CCN(C)CC3)c2)cc1.Cl,-0.66
7,Cc1ccccc1NC(=O)N1CCN(C(=O)c2ccco2)CC1,9.32
8,Cc1ccc(-n2nc3c(c2NC(=O)C(C)(C)C)CSC3)c(C)c1,13.3
9,O=C(CCN1C(=O)c2cccc3cccc(c23)C1=O)NCc1ccco1,0.727
10,COC(CNC(=O)c1ccc(CS(=O)(=O)c2c(Cl)cccc2Cl)o1)OC,20.4
11,Cc1c(NC(=O)c2ccccc2)cccc1[N+](=O)[O-],7.72
12,Br.N=C(N)SCc1cn2ccccc2n1,-1.37
13,COc1nc(N(C)C)nc(N2CC(=O)N(CCNS(=O)(=O)c3ccc(C)cc3)C2=N)n1,10.1
14,Cc1cccc(OCCCC(=O)O)c1C,10.9
15,O=C1CCN(Cc2cccnc2)CCN1[C@H](CO)c1ccccc1,13.2
16,CCOc1ccc(NC(=O)C2CCN(c3nnnn3-c3ccccc3)CC2)cc1,-8.01
17,COC(=O)CSc1nnc(CNC(=O)c2ccccc2F)n1-c1ccc(F)cc1,9.7
18,Cc1ccc(CNC(=O)c2c(-c3ccccc3)noc2C)cc1,19.7
19,C=CCOc1nc2c(c(=O)n(C)c(=O)n2C)n1C,2.43
20,O=C(NNC(=O)c1ccc(F)cc1)C(=O)N1CCCCC1,-4.55
21,O=C(CSc1nncn1-c1ccccc1)Nc1cc(Cl)cc(Cl)c1,5.88
22,O=C(Nc1ccc(OCC(=O)N2CCOCC2)cc1)Nc1cccc2ccccc12,10.7

row,SMILES,"hERG current change (%, negative = inhibition) at 1uM [%]"
1,Cc1cc(=O)oc2c(CN3CCC(C)CC3)c(O)c(Cl)cc12,8.01
2,OC(CNCCc1ccc(C(F)(F)F)cc1)COc1cccc2ccccc12 (stereo not shown),-2.51
3,CCOC(=O)CC(NC(=O)c1ccccc1F)c1ccc(C)cc1 (stereo not shown),0.886
4,N#Cc1ccc(C(=O)OCC(=O)NC2CCCC2)cc1,11.7
5,COc1ccc(NC(=O)c2cc(S(=O)(=O)N3CCCCC3)ccc2N2CCCCC2)cn1,7.51
6,COc1ccc(C(=O)Oc2ccc(/C=N/NC(=O)Cc3ccc([N+](=O)[O-])cc3)cc2)cc1,11
7,O=C(OCc1cc2ccccc2[nH]c1=O)C1CCCO1 (stereo not shown),12
8,c1ccc(-c2cn(-c3ccccc3)c3ncnc(N4CCCCC4)c23)cc1,9.67
9,Cc1ccc(CNC(=O)c2ccc(N3CCC4(CC3)CC(c3cccc(Br)c3)=NO4)c(N)c2)cc1,16.2
10,CC1(C)C2CC[C@]3(C)C(CC=C4[C@@H]5C[C@@](C)(CO)CC[C@]5(C(=O)O)CC[C@]43C)[C@@]2(C)CC[C@@H]1O (stereo partly shown),10
11,CC1(C)Cc2c(sc3nc[nH]c(=O)c23)CO1,12.1
12,COc1ccc(OC)c(CCNC(=O)CCn2ccc3cc(S(=O)(=O)N4CCCC4)ccc32)c1,8.27
13,Cc1ccc2nc(N(CCN(C)C)C(=O)c3ccc4c(c3)OCCO4)sc2c1.Cl,-14.1
14,COc1ccccc1NC(=O)NCCN1C(=O)C2C3C=CC(C3)C2C1=O (stereo not shown),10.3
15,COc1ccc(-c2cc(-c3c(O)c(OC)c4occc4c3OC)[nH]n2)cc1OC,-0.582
16,COc1ccc2nc(NC(=O)c3ccc([N+](=O)[O-])o3)sc2c1,14.3
17,CN(CC(=O)N1CCN(C2CCCCC2)CC1)S(=O)(=O)c1cccc2nsnc12,7.99
18,COc1cccc(C2C(C#N)=C(N)Oc3cc(C)[nH]c(=O)c32)c1OC (stereo not shown),-2.73
19,COc1ccc(C(=O)CSc2ccccc2C(=O)O)cc1,11.6
20,CCN(CC(=O)Nc1cc(Cl)ccc1C)C(=O)c1ccc(N2CCCC2=O)cc1,18.4
21,Cn1c(C(=O)N/N=C/c2ccccc2)cc2ccccc21,12.1
22,CCOC(=O)CSc1nc2cccnc2n1-c1ccc(F)cc1,9.18

row,SMILES,"hERG current change (%, negative = inhibition) at 1uM [%]"
1,CCOc1ccccc1N1CCN(C(=O)CSc2ccc3c(c2)OCCO3)CC1,-1.92
2,COc1cc(C(=O)NCC(=O)Nc2ccc(F)c(F)c2)ccc1OCC(=O)N1CCOCC1,32.1
3,NS(=O)(=O)c1ccc(CCNC(=O)CCS(=O)(=O)c2ccc(Br)cc2)cc1,16.5
4,Cc1ccc2c(Cl)c(C(=O)Nc3ccc4c(c3)OCO4)sc2c1,14.5
5,CCN(CC(=O)NCCCN1CCOCC1)S(=O)(=O)c1ccc(Cl)cc1,1.72
6,Cc1cc(C)n(-c2nc3ccccc3nc2N2CCCC2)n1,1.02
7,COc1cc(OC)nc(NC(=O)NS(=O)(=O)c2ccccc2Cl)n1,12.1
8,Nc1ncnc2c1ncn2[C@@H]1O[C@H](COP(=O)(O)O)[C@@H](O)[C@H]1O.O,1.63
9,COC(=O)c1ccc(OC(=O)c2cccs2)cc1,15.5
10,Cc1ccc(CSc2n[nH]c(N)n2)cc1,-0.22
11,CCOC(=O)N1CCN(C(=O)C2CCN(S(=O)(=O)c3ccc(NC(C)=O)cc3)CC2)CC1,10.3
12,CN(CCNC(=O)c1ccc(N2CCCC2=O)cc1)CCc1ccccc1,-22
13,Cc1cc(Cl)ccc1NC(=S)NCC(C)C,8.4
14,CCC(C)(C)n1nnnc1C(c1ccccn1)N1CCCCC1 (stereo not shown),4.32
15,NC(=O)C1=C[C@@H](c2ccc(C(F)(F)F)cc2)C[C@@H](OCCCCO)O1,9.27
16,COc1ccc(C(=O)NCc2cnn(C)c2C)cc1OC1CCN(C(C)C)CC1,15.7
17,COc1ccc(-c2noc(C3CCCN(C(=O)c4c(F)cccc4F)C3)n2)cc1OC (stereo not shown),10.9
18,Cc1ccn(C(=O)c2cc3cc(Cl)ccc3oc2=O)n1,9.39
19,CCc1ccc(-c2cc(C(F)(F)F)n3nc(C(=O)Nc4c(C)nn(Cc5ccccc5Cl)c4C)cc3n2)s1,8.69
20,COc1ccccc1-c1cc(C(F)(F)F)nc(N2CCCC2)n1,20.3
21,COc1ccc(/C=C2/C(=O)ON=C2c2ccccc2)cc1OC,4.35
22,CC(O)CNc1nc2c(c(=O)n(Cc3cccc(Cl)c3)c(=O)n2C)n1C (stereo not shown),10.6

row,SMILES,"hERG current change (%, negative = inhibition) at 1uM [%]"
1,CS(=O)(=O)Nc1cccc(C2=NN(C(=O)c3ccccc3Cl)C(c3ccccc3O)C2)c1 (stereo not shown),5.82
2,Cc1ccc(NC(=S)NCc2ccc3c(c2)OCO3)c(C)c1,8.68
3,Cc1cccnc1NC(=O)Nc1cccc(C(F)(F)F)c1,-18.9
4,Cc1ccc2c(c1)nnn2C1CCN(S(=O)(=O)c2ccc(C(=O)N(C)C3CCCCC3)cc2)CC1,13.9
5,COc1ccc2[nH]c(=O)c(CN(Cc3ccco3)Cc3nnnn3Cc3ccccc3)cc2c1,9.85
6,O=C(NCCc1nccs1)C1CCC(=O)N(Cc2cccc(C(F)(F)F)c2)C1 (stereo not shown),5.62
7,O=C(COC(=O)c1ccc(CN2CCCC2=O)cc1)Nc1ccc(F)cc1,7.31
8,Cc1ccc(C)c(/C=C2\CCn3c2nc2cc(C(=O)O)ccc2c3=O)c1,13.2
9,COc1cc(CNCCO)cc(Cl)c1OCc1ccc(Cl)cc1Cl.Cl,6.8
10,CCOC(=O)/C(C#N)=C(\N)C(C)C(=O)Nc1ccccn1 (stereo not shown),2.14
11,Nc1ccc(Oc2ncccn2)c(Cl)c1,7.14
12,O=C(Nc1cccc2ccccc12)N1CC=CCC1,6.35
13,O=C(c1ccccc1)N1CCN(CC#CC2(O)CCCCC2)CC1,17.8
14,Cc1cc(Nc2ccccc2)n(C(=O)c2ccc(N)cc2)n1,-1.63
15,CCCN(CCC)CCCNC(=O)c1cn(CC)c2ccc(S(=O)(=O)N(C)C3CCCCC3)cc2c1=O,-46.1
16,CCn1c(C)nc2cc(C(N)=O)ccc21,16.7
17,O=C(COC(=O)c1ccc(Br)o1)NCC(=O)Nc1ccc(F)cc1,9.38
18,Cc1nn(CC(=O)Nc2ccc3c(c2)OCO3)c(C)c1[N+](=O)[O-],-0.0306
19,CCN(Cc1ccncc1)C(=O)c1cc(Br)cc(Br)c1O,8.5
20,CC1CCN(C(=O)C2CCN(S(=O)(=O)c3cnc[nH]3)CC2)CC1,7.57
21,CCOC(=O)N1CC=C2C(C#N)=C(N)C(C#N)(C#N)[C@H](c3cccs3)[C@H]2C1,-10.1
22,Cc1cc(N)c(-n2cc3c(=O)n(C)c(=O)n(C)c3c2)cc1C,3.23

# — paper PMC4336329 (PLoS ONE, 2015)
